# From PMC8037323, “Apigenin and Ampicillin as Combined Strategy to Treat Severe Streptococcus suis Infection” (Molecules, 2021)
# Molecular target: suilysin (SLY); recombinant rSLY (Streptococcus suis, UniProt Q55996)
# Test: biochemical
smiles,measurement,value
O=c1cc(-c2ccc(O)cc2)oc2cc(O)cc(O)c12 [apigenin],Kd,276 nM
